B1: chr2:31460152:31460153:+_ENSMUSG00000026843_ENSMUST00000055244|mus_hu|motif|central (ssRNA)
RNA: GGGAGUUCUACAGUCCGACGAUCAUUCUGGAUCUUUUUGAUCAUUUCCCCGUUUCUUCCUAUUACAAUCCCCACAGCAAACCGGGGCACAGAUACCUCUAUACUGCCUCCUCCCAUUCGAGAGUUGAAAUCGCCGCGUACACCCAACAGAGGAUUGAGCAUCA
B2: chr17:60770872:60770873:+_ENSG00000011028_ENST00000303375|hu_hu|hu_hu_hu_mus_True|18_108 (ssRNA)
RNA: GGGAGUUCUACAGUCCGACGAUCUCUCUUUUCUUUUAAAAAAAAAGACAAACAAUAAUAGCACAUUUCGAGAAUCAAGAACUACAAUAGAGGGUCCGCUUUGAGUUUUUGUUCACAACAUUGUCCCCUGGGACACGGGGACUGCAACAGAGGAUUGAGCAUCA
B3: chr4:34758383:34758384:-_ENSMUSG00000039967_ENSMUST00000047950|mus_hu|FALSE|FALSE (ssRNA)
RNA: GGGAGUUCUACAGUCCGACGAUCCUCAUCAUCUGAACCAUCAUUGUCAUUAAACACUAUAAAAUCUGUUGAAUAGAGACUAUUCUUUUUUAUAGGUCGCUGCUCCUGUUUAGCCACAGUAUUAGUCUUCUGAUUUUCAUUGGUCAACAGAGGAUUGAGCAUCA
B4: 72619223_72628188_842_CDS_ENSG00000166224_ENST00000373202|human|control|control (ssRNA)
RNA: GGGAGUUCUACAGUCCGACGAUCUUCUGGAGUUUUGAUCCCCUUCUCAAAGGCCAGAUCCCGAUAUGCUUUGCAGGCCAUCAGUAUGCUUUCUGUUCCCCCAGAAGUCACACAUCCACACGAAUCUGGUCCCCCAUUGAACAGCAACAGAGGAUUGAGCAUCA
B5: chr5:145543945:145543946:-_ENSG00000133706_ENST00000545646|hu_hu|hu_hu_hu_mus_True|1_78 (ssRNA)
RNA: GGGAGUUCUACAGUCCGACGAUCCUGAACGGCCAGUGGUGGGAAAUAAUCAAGCCAAUGUUCUGCUUCAGAAAACUUCACUAUGUCGUCAUCAGAGAGCCCAAGGGAUUUCAUAAUGUCCCACUGGUACUUAGAAGAUCCAGCCAACAGAGGAUUGAGCAUCA
B6: chr12:48362563:48362564:+_ENSG00000134291_ENST00000256686|hu_hu|hu_hu_hu_mus_False|8_88 (ssRNA)
RNA: GGGAGUUCUACAGUCCGACGAUCUCCGUCAAGCCCUUCGAUAGACCCAUAGACUCUAAACUGUAAUCACUUUGUAUGGGGAAGGAAAAGAAACGCCAAAAACUUUCCAAAAAGCGGGGGUGGGGUGUCCCAGGCCUGGGAGGUCAACAGAGGAUUGAGCAUCA
B7: chr3:179287964:179287965:+_ENSG00000136518_ENST00000429709|hu_hu|hu_hu_hu_mus_True|8_18 (ssRNA)
RNA: GGGAGUUCUACAGUCCGACGAUCCUUGAGUGGUGAGAUGGCCUCCAUGUUCUCCCUGGGCACGCGGAGGGCAUUGGUGUCUAUGUAGUAGGUGGGCCCGCCCUGCUUGCCUUUGUCGCCAUCUAUUUCCAUUAAUGUACUUCCCAACAGAGGAUUGAGCAUCA
B8: chr4:57314706:57314707:+_ENSG00000128050_ENST00000264221|hu_mus|hu_hu_hu_mus_True|18_38 (ssRNA)
RNA: GGGAGUUCUACAGUCCGACGAUCCAGAAUUUCAAAAAUAGCUUGUGUGGCAUGACUCAUGAUGUCCACUUCAGUCUGCCCUAUAACAAGGCCAGCAAAGCAAAAUUUUGCAGCAAUCAGCUGUUCCUCAGACCACUGUGGAUCCAACAGAGGAUUGAGCAUCA
B9: chr1:184023491:184023492:+_ENSG00000198860_ENST00000361641|hu_hu|motif|central (ssRNA)
RNA: GGGAGUUCUACAGUCCGACGAUCCAUGAGGUCCAGGUAAACCAAGAACGCUACAUAAACUUGGGUGGCAUCUCCGGUAUCGGAUUCCAUCAUUUCUAGAUACUUAGGGUGAGUGCCCAUCCAGGCGUCCUCAGGGGCCCACGACAACAGAGGAUUGAGCAUCA
B10: chr13:36129161:36129162:+_ENSG00000172915_ENST00000537702|hu_hu|FALSE|FALSE (ssRNA)
RNA: GGGAGUUCUACAGUCCGACGAUCCAAAUAUUCGAAGUUUGAAAUUUCCCUUCUUUGCCAGCGCUGAGUCAUAUUGGAAGAUUUAUAAAGCUGUCGAGGAGUGGCCAAUGAUAUCCUCCUGGCUUGUGGCAGACCAUAGCUGGUCAACAGAGGAUUGAGCAUCA
B11: chr17:27085315:27085316:-_ENSG00000173065_ENST00000581407|hu_mus|FALSE|FALSE (ssRNA)
RNA: GGGAGUUCUACAGUCCGACGAUCACUAAACCUAGAAGGGCAAUGUGUGUUGCCUGAGGAGAGCGUCCCGGCUCCCUAUCUAUACCCUGGGUGCUGAAUAUGAAGACUUCGACUAUCUGUGGGAUCAGGGGCUCGGGUGCCAGGCAACAGAGGAUUGAGCAUCA
B12: chr8:82586177:82586178:-_ENSG00000133731_ENST00000256108|hu_hu|FALSE|FALSE (ssRNA)
RNA: GGGAGUUCUACAGUCCGACGAUCUCCUUUUCUGGCAGUGUACAUCUUGCCUUCCACACAACUGUACACAACUCCAAAUUCUAUCUUUUUAUUUACAGCAAAGCCAAUUGAAACAGCUACAAAAGGAAAUCUAUGUACAAAGUUCAACAGAGGAUUGAGCAUCA
B13: chr7:75932113:75932114:+_ENSG00000106211_ENST00000248553|hu_hu|hu_hu_hu_mus_False|28_48 (ssRNA)
RNA: GGGAGUUCUACAGUCCGACGAUCCUGCGACCACUCAUCGGGCAACCGGGGCACCCCGAAAGCUUGAUCGAAGAGGCGGCUGUGUGCGUACCAGUCGUCCCGGAAUGCCCAGCUGGGCGGGCUCCGCAGCAGCGAGAAGGGCACCAACAGAGGAUUGAGCAUCA
B14: chr9:74900086:74900087:+_ENSMUSG00000007656_ENSMUST00000169492|mus_hu|motif|central (ssRNA)
RNA: GGGAGUUCUACAGUCCGACGAUCUUGUCCCAGAUGAGGAUAUCUUGCUUUUAAUUUUGCUUCUUCUGCUUUCUCUGGACGGGUCACUUUAUCUUCCAUUUCCUUCUGCUCCUCCGCGGAGGCUGCCUCGGGGACUUCCGCAGACAACAGAGGAUUGAGCAUCA
B15: chr16:94664741:94664742:+_ENSMUSG00000040785_ENSMUST00000117648|mus_hu|mus_mus_mus_hu_False|1_1 (ssRNA)
RNA: GGGAGUUCUACAGUCCGACGAUCUGGUACUGAUCUUGGUAGCUGAUAUUCAGGAGAAAGGCUGGCCAAGGGUGUAUAUAUGCUGGUGUACUGGGGCAAACCUGGUAACACGUUUAUGUAUGCUGGCGGUGUCUGGGUGCCAAACAACAGAGGAUUGAGCAUCA
B16: chr6:41757443:41757444:+_ENSG00000214736_ENST00000398881|hu_mus|hu_hu_hu_mus_False|48_58 (ssRNA)
RNA: GGGAGUUCUACAGUCCGACGAUCGAACCGUGCAGAGGCAACAUCUCAGCCGACACUGGGGGAUGGGGGGGCAGUGGGAAACUAGGCAGGGAAGGGGAGGGAGUCAACUUCAGCUGCCACUCAGGUAGGAUCUUGUGGUCACAGCAACAGAGGAUUGAGCAUCA
B17: chr6:31368937:31368938:+_ENSMUSG00000025609_ENSMUST00000026699|mus_mus|motif|central (ssRNA)
RNA: GGGAGUUCUACAGUCCGACGAUCGGGAGGAUAGUUGCUCUCUGAAGACCAUCUGGAAGACUGAUCAUUUGGUUUAUCCACGGAAAUGUUCUCGGGAAGGUAGGUGGAGGAGAAGGAGCUCCACUUAUGCAGCGCGUAGGGCAGCAACAGAGGAUUGAGCAUCA
B18: chr17:31789506:31789507:-_ENSMUSG00000061613_ENSMUST00000166526|mus_mus|FALSE|FALSE (ssRNA)
RNA: GGGAGUUCUACAGUCCGACGAUCAGACUGGGAAGAGUUUUGAGGGUUACGGUAAAUGUUCAAGAGGGCAAUGGUCUGGCUAAAGGUUGGUUUAUUGUGCAACCGAGAACAUCUGUCUCCAUGACGACAUGCUCCGAUUUUGAACAACAGAGGAUUGAGCAUCA
B19: 135565860_135565980_4621_3pUTR_ENSG00000125484_ENST00000372146|human|control|control (ssRNA)
RNA: GGGAGUUCUACAGUCCGACGAUCGCAAUUUGAAUAGGAAACAGAAAACAUUUCUGAGCAGACUGUUUAGAAGUGCCUCCAAGGGCUGGUCUGCACUACCUAUCAAUGCGGGGUGGGGGUGGGGAGGUUGCCGUCAUGGUAUCACAACAGAGGAUUGAGCAUCA
B20: chr11:10819154:10819155:-_ENSG00000110321_ENST00000525681|hu_mus|motif|central (ssRNA)
RNA: GGGAGUUCUACAGUCCGACGAUCCUUAGGAUGUAAUUAUUGCAUGCUGCUAAUAUUCUAUCUAAACAUUAAGGAUACUCCGGAAGUAUUUGAUGGUAGACUAUGAUUAAGACAUCACACUACAAAAACCUUAUGCAGAAGGAACAACAGAGGAUUGAGCAUCA
B21: chr22:32879901:32879902:+_ENSG00000100225_ENST00000397426|hu_mus|hu_hu_hu_mus_False|78_98 (ssRNA)
RNA: GGGAGUUCUACAGUCCGACGAUCCUCUUCCAUACUCGCAUUAUCUUGAAUUGACUCAGCUUCAAAAUUUUGACUAGGCCCUUCCAUACUGUCAUCAGUCCAGGCAUCAAAUGGGGUGGCCUGUCCUUGGGAUGAAUCAGUCCCCAACAGAGGAUUGAGCAUCA
B22: chr18:6437031:6437032:-_ENSMUSG00000024240_ENSMUST00000028100|mus_hu|motif|central (ssRNA)
RNA: GGGAGUUCUACAGUCCGACGAUCGCAGUACUGUACAGAUAAUUGCUGUAUUCUUAAUUUACAGAUGUUGAUUUUUUUCCGGUUAACAGUAAGAAAAGAAAAAUUGAAGCAUGAGAGAUGAGCAUUGCUGUCAAGUCCCCACAGCAACAGAGGAUUGAGCAUCA

The other results are listed elsewhere or left out.

This experiment has as its target T1, UNK ZnF1-3 (human, UniProt Q9C0B0 31-174).
T1 sequence: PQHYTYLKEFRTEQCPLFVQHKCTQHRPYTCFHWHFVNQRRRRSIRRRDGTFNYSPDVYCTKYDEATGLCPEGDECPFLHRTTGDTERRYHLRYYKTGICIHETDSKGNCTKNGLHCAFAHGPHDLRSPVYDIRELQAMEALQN
The experiment is described as follows: nsRBNS (natural sequence RNA bind-n-seq); RBNS binding buffer (assumed for nsRBNS): 25 mM Tris pH 7.5, 150 mM KCl, 3 mM MgCl2, 0.01% Triton X-100, 500 ug/ml BSA, 20 U/ml SUPERase-In, 4 C; UNK is unkempt and MSI1 is Musashi-1; names of the RNAs are library labels; protein concentration not given here; high values mean tight binding.
As to B1, the binding signal was determined as 0.888 enrichment R.

In turn, B2 gave a binding signal of 1.3 enrichment R.

Regarding B3, the binding signal stood at 0.727 enrichment R.

B4 had a binding signal of 0.527 enrichment R.

B5 showed a binding signal of 1.49 enrichment R.

As to B6, the binding signal turned out to be 2 enrichment R.

Consider B7, for which the binding signal was found to be 0.607 enrichment R.

Regarding B8, the binding signal worked out at 1 enrichment R.

In turn, B9 yielded a binding signal of 1.04 enrichment R.

B10 gave a binding signal of 1.07 enrichment R.

As to B11, the binding signal came out at 1.05 enrichment R.

In the case of B12, the binding signal turned out to be 1.12 enrichment R.

Regarding B13, the binding signal stood at 0.629 enrichment R.

As for B14, the binding signal was determined as 0.692 enrichment R.

In turn, B15 displayed a binding signal of 1.12 enrichment R.

With B16, the binding signal was found to be 2.96 enrichment R.

Consider B17, for which the binding signal is 1.85 enrichment R.

As to B18, the binding signal was found to be 1.15 enrichment R.

The molecule B19 came in with a binding signal of 1.39 enrichment R.

Molecule B20 yielded a binding signal of 1.09 enrichment R.

Turning to B21, the binding signal turned out to be 1.18 enrichment R.

B22 had a binding signal of 2.13 enrichment R.

These data come from publication PMC12136788.
